Results published in patent publication US20230322882A1 (NANJING NORMAL UNIVERSITY, published 2023).

Assays:
Assay in all cases: cell-based or functional assay
[1] = target: T1, CD25, CD122 and CD132 receptor molecules on HEK-Blue IL-2 cells (UniProt P01589 22-272; P14784 27-551; P31785 23-369, limits assumed)
T1 sequence (looked up) 1: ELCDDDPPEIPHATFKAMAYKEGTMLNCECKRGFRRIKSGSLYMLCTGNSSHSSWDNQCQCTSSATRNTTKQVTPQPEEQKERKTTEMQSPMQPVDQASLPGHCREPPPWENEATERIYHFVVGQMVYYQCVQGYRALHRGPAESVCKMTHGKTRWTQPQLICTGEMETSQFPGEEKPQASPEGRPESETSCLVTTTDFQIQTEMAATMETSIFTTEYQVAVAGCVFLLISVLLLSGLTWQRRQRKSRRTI
T1 sequence (looked up) 2: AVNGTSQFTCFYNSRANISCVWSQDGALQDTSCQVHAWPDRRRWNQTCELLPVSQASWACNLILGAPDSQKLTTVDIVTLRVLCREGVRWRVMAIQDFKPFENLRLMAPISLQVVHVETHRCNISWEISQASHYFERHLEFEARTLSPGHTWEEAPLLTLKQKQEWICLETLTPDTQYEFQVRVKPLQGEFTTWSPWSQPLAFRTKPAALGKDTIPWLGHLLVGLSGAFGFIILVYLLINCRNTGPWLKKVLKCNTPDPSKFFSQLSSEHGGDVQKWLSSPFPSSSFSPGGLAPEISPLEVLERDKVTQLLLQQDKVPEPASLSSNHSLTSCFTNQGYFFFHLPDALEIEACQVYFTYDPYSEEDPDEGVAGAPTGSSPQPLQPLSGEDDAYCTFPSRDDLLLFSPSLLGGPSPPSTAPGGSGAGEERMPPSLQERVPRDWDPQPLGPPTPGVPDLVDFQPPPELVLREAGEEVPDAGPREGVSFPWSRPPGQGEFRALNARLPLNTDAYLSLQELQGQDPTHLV
T1 sequence (looked up) 3: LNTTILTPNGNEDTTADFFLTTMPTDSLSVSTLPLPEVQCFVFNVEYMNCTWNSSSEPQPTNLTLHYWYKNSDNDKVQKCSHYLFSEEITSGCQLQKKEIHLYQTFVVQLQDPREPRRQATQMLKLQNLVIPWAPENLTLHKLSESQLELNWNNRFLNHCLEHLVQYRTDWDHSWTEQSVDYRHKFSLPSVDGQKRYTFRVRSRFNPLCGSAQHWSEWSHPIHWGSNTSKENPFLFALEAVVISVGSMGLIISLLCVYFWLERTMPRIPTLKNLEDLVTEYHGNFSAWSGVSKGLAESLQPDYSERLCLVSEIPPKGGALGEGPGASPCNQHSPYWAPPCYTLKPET

[2] = target: T1, CD25, CD122 and CD132 receptor …; remark: listed apart in the source
[3] = target: T1, CD25, CD122 and CD132 receptor …; remark: listed apart in the source

B1: Fusion polypeptide of SEQ ID NO: 12 (HSA C361-IL2 loop1 permutated) (ligand)
chain: DAHKSEVAHRFKDLGEENFKALVLIAFAQYLQQSPFEDHVKLVNEVTEFAKTCVADAAAAAKLTRMLTFKFYMPKKATELKHLQCLEEELKPLEEVLNLAQSKNFHLRPRDLISNINVIVLELKGSETTFMCEYADETATIVEFLNRWITFSQSIISTLTGSGPASSSTKKTQLQLEHLLLDLQMILNGINNYKNPKESAENCDKSLHTLFGDKLCTVATLRETYGEMADCCAKQEPERNECFLQHKDDNPNLPRLVRPEVDVMCTAFHDNEETFLKKYLYEIARRHPYFYAPELLFFAKRYKAAFTECCQAADKAACLLPKLDELR[sequence of about 400 residues not given]
- EC50 (pM), STAT5-regulated SEAP reporter in HEK-Blue IL-2 cells [1]: 1.75 pM

B2: Fusion polypeptide of SEQ ID NO: 13 (HSA D56-IL2 loop2 permutated) (ligand)
chain: DAHKSEVAHRFKDLGEENFKALVLIAFAQYLQQSPFEDHVKLVNEVTEFAKTCVADESAENCDKSLHTLFGDKLCTVATLRETYGEMADCCAKQEPERNECFLQHKDDNPNLPRLVRPEVDVMCTAFHDNEETFLKKYLYEIARRHPYFYAPELLFFAKRYKAAFTECCQAADKAACLLPKLDELRDEGKASSAKQRLKCASLQKFGERAFKAWAVARLSQRFPKAEFAEVSKLVTDLTKVHTECCHGDLLECADDRADLAKYICENQDSISSKLKECCEKPLLEKSHCIAEVENDEMPANPKLTRMLTFKFYMPKKATELKHLQCLEEELKPLEEVLNLAQSKNFHLRPRDLISNINVIVLELKGSETTFMCEYADETATIVEFLNRWITFSQSIISTLTGSGPASSSTKKTQLQLEHLLLDLQMILNGINNYKGDLPSLAADFVESKDVCKNYAEAKDVFLGMFLYEYARRHPDYSVVLLLRLAKTYETTLEKCCAAADPHECYAKVFDEFKPL[sequence of about 200 residues not given]
- EC50 (pM), STAT5-regulated SEAP reporter in HEK-Blue IL-2 cells [2]: 6.36 pM

B3: Fusion polypeptide of SEQ ID NO: 14 (HSA A300-IL2 loop2 permutated) (ligand)
chain: DAHKSEVAHRFKDLGEENFKALVLIAFAQYLQQSPFEDHVKLVNEVTEFAKTCVADESAENCDKSLHTLFGDKLCTVATLRETYGEMADCCAKQEPERNECFLQHKDDNPNLPRLVRPEVDVMCTAFHDNEETFLKKYLYEIARRHPYFYAPELLFFAKRYKAAFTECCQAADKAACLLPKLDELRDEGKASSAKQRLKCASLQKFGERAFKAWAVARLSQRFPKAEFAEVSKLVTDLTKVHTECCHGDLLECADDRADLAKYICENQDSISSKLKECCEKPLLEKSHCIAEVENDEMPADLPSLAADFVESKDVCKNYAEAKDVFLGMFLYEYARRHPDYSVVLLLRLAKTYETTLEKCCANPKLTRMLTFKFYMPKKATELKHLQCLEEELKPLEEVLNLAQSKNFHLRPRDLISNINVIVLELKGSETTFMCEYADETATIVEFLNRWITFSQSIISTLTGSGPASSSTKKTQLQLEHLLLDLQMILNGINNYKAADPHECYAKVFDEFKPL[sequence of about 200 residues not given]
- EC50 (pM), STAT5-regulated SEAP reporter in HEK-Blue IL-2 cells [3]: 5.86 pM

Like-named read-outs stand apart in the source and are kept apart here.
